Among all 48,000 compounds or so, about 120 (0.25%) were called active. Inconclusive results (about 4%) are left out. Calls come from the whole dose curve; as a rule, active = well fitted activation curve with a large enough effect; inconclusive = small, poorly fitted or top-dose-only effect, or another doubt; inactive = no such curve, though single readings can be large or run the other way. The list shows a part of the results.
Test: Primary qHTS for Identification of Small Molecule Activators of Huntingtin-Antisense Promoter Activity; note: nearly all actives have a fitted effect of over 55% in size
Conditions: HEK293 HTT-AS promoter firefly luciferase reporter, 24 h; series mostly up to 57.5 µM; activity change, positive = activation: at the top concentration
Procedure, shortened: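 Firefly luciferase signal from promoter-reporter HEK293 cells was scaled between vehicle (0%) and zero RLU (-100%). Compounds were tested at final concentrations of up to 57.5 uM over 24 h at 37 degrees C. PTC124 at 50 uM final served as control inhibitor.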

Activity change, positive = activation, inactive:
Cc1cc(C)cc(NC(=O)Nc2nnc(N(C)C3CCCCC3)s2)c1 0%, COc1ccccc1-c1noc(CCCC(=O)NCc2ccco2)n1 -15.4%, COc1cc(NC(=O)Cn2c(=O)n(CC3CCCO3)c(=O)c3ccccc32)cc(OC)c1 (stereo unspecified) -8.58%, COc1ccc2sc(N(Cc3cccnc3)C(=O)COc3ccccc3)nc2c1 0.846%, CC(=O)c1ccc(NS(=O)(=O)c2ccc(-c3cnc(C4CC4)o3)cc2)cc1 -32.8%, CCCCc1nn2c(=O)cc(COC(=O)c3ccc(NC(=O)C(CC)CC)cc3)nc2s1 -49.7%, Cc1ccc(NC(=O)c2cc3nc(-c4ccccc4)cc(-c4ccccc4)n3n2)cc1 -3.06%, CCn1cnc2c(=O)oc3ccc(S(=O)(=O)Nc4ccc(OC)cc4)cc3c21 -7.88%, COc1ccc(CCNC(=O)c2ccc(Cn3c(=O)c4ccccc4n(Cc4cccc(C)c4)c3=O)cc2)cc1OC -3.91%, CCOCCCn1c(=N)c(C(=O)NC2CCCC2)cc2c(=O)n3cc(C)ccc3nc21 -3.56%, CCC1CCCCN1S(=O)(=O)c1cc(C(=O)Nc2ccc(C)c(F)c2)ccc1F (stereo unspecified) -38.8%, COc1ccccc1Cc1nc2ccccc2nc1SCC(=O)Nc1cc(Cl)ccc1OC -9.11%, COc1ccc(-n2c(SCC(=O)N3CCc4ccccc43)nc3c([nH]c4ccccc43)c2=O)cc1 -4.73%, COc1ccc(C(=O)Nc2ccc3oc(-c4ccc(F)cc4Cl)nc3c2)cc1 -3.59%, CCOC(=O)C1CCCN(C(=O)Cn2ncc3c(C)n(Cc4ccccc4Cl)c(C)c3c2=O)C1 (stereo unspecified) -30.4%, CCCc1nc2ccccc2n1CC(O)COc1ccc(C(=O)OC)cc1 (stereo unspecified) -22.5%, CCC1CCCCN1S(=O)(=O)c1ccc(C(=O)Nc2sc3c(c2C(N)=O)CCC3)cc1 (stereo unspecified) -27.4%, O=C(CSc1nnc(-c2ccccc2F)o1)Nc1cccc(C(F)(F)F)c1 -5.76%, O=C(Nc1ccc(Cl)cc1F)c1cnc2sc(N3CCOCC3)nn2c1=O -17.7%, COCCCN1C(=O)c2ccccc2CC1(C)C(=O)NC1CCCCC1 (stereo unspecified) -5.46%, COc1ccc(C2C(C(=O)Nc3ccc(Cl)cc3)=C(C)Nc3nc(SCc4cccc(C)c4)nn32)cc1OC (stereo unspecified) -2.68%, CC(C)(C)OC(=O)N1CCC(c2c(C(=O)N3CCN(c4ccccn4)CC3)cnn2-c2ccccc2)CC1 -1.13%, COc1ccc(-c2nc(C)c(CCNC(=O)c3cccs3)s2)cc1OC 29.9%, COc1ccccc1CNc1cc(C)nc2nc(-c3ccc(C)cc3)nn12 -1.29%, CCN(CCCc1ccccc1)CCCc1ccccc1 -10.3%, Cc1ccc2nc(NC(=O)CSc3nccn3-c3ccc(Cl)cc3)sc2c1 -26.8%, O=C(CCN1CCN2CCCC2C1)N1c2ccccc2Sc2ccc(Cl)cc21 (stereo unspecified) -11.7% [at 25.1 µM, percent change from vehicle, -100% = no light], C[C@@H](C1=C(CCN(C)C)Cc2ccccc21)c1ccccn1 -4.1%, CCCCC(CC)COC(=O)c1ccccc1O (stereo unspecified) -4.45%, Cc1ccc(C)c(NC(=O)Cn2c(=O)n(-c3ccc(CC(=O)NCC4CCCO4)cc3)c(=O)c3ccccc32)c1 (stereo unspecified) -8.25%, Cc1ccc(OCC(=O)NCC2(N(C)C)CCCCC2)cc1C 6.47%, CCCOc1ccc(C(=O)NCC2OCCc3ccccc32)cc1 (stereo unspecified) 7.22%, Cc1ccc(CNc2oc(-c3ccc(COc4ccc(C)cc4)o3)nc2C#N)cc1 -19%, Cc1ccc(NC(=O)c2c(C)nc3sc(C(=O)Nc4ccc(F)cc4)c(N)c3c2-c2ccc(C)o2)c(C)c1 12%, CC1CN(C(=O)CCC(=O)Nc2cc(F)ccc2F)c2ccccc2S1 (stereo unspecified) -14.7%, O=C(O)c1c(O)c(-c2ccccc2)nc2ccccc12 -8.27%, Cc1ccc2c(c1)-c1c(cnn1CC(=O)N1CCN(c3ccccc3F)CC1)CO2 -8.9%, COCCCNC(=O)c1cnc2sc(N3CCCCCC3)nn2c1=O -5.66%, COc1cccc(NC(=O)CCc2nc3c(C)nn(-c4ccc(C)cc4)c3n(C)c2=O)c1 -13.5%, CCCCN(CCCNC(=O)CN1N=C(c2ccc(C)cc2)CCC1=O)c1ccccc1 -31%, O=c1c(=O)n(Cc2ccc(Cl)cc2)ccn1Cc1ccc(F)cc1 -12.4%, COc1cc2c(cc1OC)CN(CCc1ccc(NC(=O)c3cccc4c(=O)c5cccc(OC)c5[nH]c34)cc1)CC2 -63.5%, COc1cccc(OCC(=O)NCCS(=O)(=O)N2CCN(c3ccccc3F)CC2)c1 -11.6%, Cc1oc2ncn(CC(C)C)c(=O)c2c1C(=O)NCCc1ccccc1 -4.7%, Cc1ccc(-c2nc(CNC(=O)Nc3ccccc3)c(C)o2)cc1 -20.8%, COc1ccc(-c2cn3cccnc3n2)cc1NC(=O)Cc1ccccc1 -1.3%, CCc1nc2cccnc2n1-c1ccc(CC(=O)Nc2c(C)cccc2C)cc1 -13.2%, CCN(CC)C(=O)CSc1nc2ccsc2c(=O)n1Cc1ccccc1Cl -30.4%, Cc1cc(C)n2c(Nc3ccc(C(C)C)cc3)c(-c3ccsc3)nc2n1 9.38%, COCCNC(=O)Cn1c(=O)n(CCCCCC(=O)NCc2ccccc2Cl)c(=O)c2sccc21 -9.1%, Cc1ccc(NC(=O)Cn2c(=O)oc3cc(S(=O)(=O)N4CCCCC4)ccc32)c(Cl)c1 -46.2%, Cc1cccc(Cn2c(SCc3ccc(C(=O)NCc4ccccc4F)cc3)nc3ccncc32)c1 -20.8%, CCN(CC)CCCNC(=O)CCCn1ncn2c(cc3occc32)c1=O -1.81%, CC1CCCCN1C(=O)Cn1ncc2c3ccccc3n(Cc3ccccc3F)c2c1=O (stereo unspecified) -16.9%, COc1ccccc1-c1noc(-c2ccc(NC3CCCCC3)c([N+](=O)[O-])c2)n1 -11.8%, CC(C)(C)C1CCc2c(sc3nc(-c4cc5ccccc5oc4=O)[nH]c(=O)c23)C1 (stereo unspecified) 0.17%, CSc1ncc(C(=O)N2CCN(c3cccc(Cl)c3)CC2)c(C)n1 -22.7%, O=C(CCCn1c(=O)c2cccn2c2cccnc21)NCc1ccccc1Br 0.669%, O=C(CC1C(=O)N(c2ccccc2)C(=O)N1CCc1cccs1)Nc1ccc(F)cc1 (stereo unspecified) -5.27%, Cc1c(C)n(Cc2ccc(F)cc2)c2ccc(C(=O)NCc3ccco3)cc12 -20.7%, CCOc1ccc(CCNC(=O)Cn2nnc(-c3ccccc3Cl)n2)cc1OCC -16%, O=C(CSc1ncc(-c2ccccc2)[nH]1)Nc1ccc(Cl)cc1 6.83%, O=C(Cn1c(=O)nc(-c2ccccc2)c2cc(Cl)ccc21)N1CCN(c2ccccc2F)CC1 -12%, CCOC(=O)c1sc2ccccc2c1S(=O)(=O)N1CCN(c2cccc(C)c2)C(C)C1 (stereo unspecified) -28.4%, COc1ccc2c(c1)CC(C(=O)NCCCN1CCN(c3cccc(Cl)c3)CC1)CO2 (stereo unspecified) -24%, Cc1ccccc1CNC(=O)c1oc2c(c1C)-c1[nH]ncc1CC2 2.22%, Cc1ccccc1Nc1nn2c(=O)c3ccc(C(=O)NCCc4ccc(Cl)cc4)cc3nc2s1 -33.7%, Cc1ccc2nc(Cl)c3cc(C(=O)N4CCCCC4C)sc3c2c1 (stereo unspecified) -7.21%, COc1ccc(Cl)cc1NC(=O)CN1C(=O)C(C)(C)c2cc(S(=O)(=O)N3CCCCC3)ccc21 -29.1%, O=P(O)(O)C(O)(Cc1cccnc1)P(=O)(O)O, CC(C)C1C(=O)Nc2ccc(S(=O)(=O)NCCc3ccc(Cl)cc3)cc21 (stereo unspecified) -30%, Cc1cccc(-n2ncc(C(=O)N3CCN(c4ccc(C)cc4C)CC3)c2C2CCN(C(=O)OC(C)(C)C)CC2)c1 3.67%, Cc1cc(N2CCN(C)CC2)nc2ccc(NC(=O)Nc3cccc(Cl)c3)cc12 -1.24%, Cc1cn(C)c(CC(=O)NCc2ccccc2)c1C(=O)O -4.82%, Cc1ccsc1CN(C(=O)c1oc2ccc(Br)cc2c1C)C1CCS(=O)(=O)C1 (stereo unspecified) -37%, CCN1c2ccccc2-c2nc(SCC(=O)NCc3ccc(Cl)cc3)ncc2S1(=O)=O -25.4%, CCOc1ccc(C2c3c(oc4ccc(C)cc4c3=O)C(=O)N2CCCN2CCOCC2)cc1 (stereo unspecified) -8.64%, CCOc1ccc(Nc2c(S(=O)(=O)c3ccc(Cl)cc3)cnc3ccc(OCC)cc23)cc1 -19.3%, Cc1ccc(Cl)cc1N1CCN(C(=O)c2c(C)oc3ncnc(N4CCCCC4)c23)CC1 -40.2%, COc1ccc(-n2nc(CCC(=O)N(C)O)cc2-c2ccc(Cl)cc2)cc1 -1.17%, CCCCOc1cccc(C(=O)Nc2cc(NC(=O)c3ccco3)ccc2OC)c1 -22%, CCc1ccc(CN2CCc3nc(N4CCN(c5ccccc5F)CC4)ncc3C2)cc1 -69%, CCc1ccc(C2=C(C)C(N3CCC(C(=O)NCc4ccccc4)CC3)=NS2(=O)=O)cc1 -22.1%, Cc1ccc2c(c1)-c1c(cnc3cc(-c4ccc(F)cc4)nn13)CO2 -4.95%, Cc1ccc(CNC(=O)c2c(O)nc3cc(C)ccn3c2=O)cc1 -18%, CC(c1ccccc1)n1cc2c(c1-c1ccccc1Br)c(=O)n(C)c(=O)n2C (stereo unspecified) -40.7%, COc1ccc(-c2cnc(C)o2)cc1S(=O)(=O)Nc1c(C)cc(C)cc1C -23.6%, COc1cccc(NC(=O)CCc2c(C)nc3nc(CNC(=O)c4cccc(F)c4)nn3c2C)c1 -14.1%, C#CCOc1ccc(-c2nnc(Nc3ccc(NC(C)=O)cc3)c3ccccc23)cc1 -14.7%, CC(C)COc1ccc(C(=O)N2CCCCC2CCN2CCCCC2)cc1 (stereo unspecified) -2.36%, CC(=O)OCC(=O)[C@@]12OC(C)(C)O[C@H]1C[C@H]1[C@@H]3C[C@H](F)C4=CC(=O)C=C[C@]4(C)[C@@]3(F)[C@@H](O)C[C@@]12C 0.58%, COc1ccc(CCNC(=O)c2cnn(-c3cccc(C)c3)c2C2CCN(C(=O)OC(C)(C)C)CC2)cc1OC -27.1%, COc1cccc2c1ncc1c(-c3ccc(C)cc3)nn(-c3ccc(F)cc3)c12 -25.1%, Cc1cccc(-c2nnn3c2nc(NCc2ccc4c(c2)OCO4)c2ccccc23)c1 12.5%, O=C(NCCc1ccccc1)c1ccc2c(c1)N(Cc1ccccc1)C(=O)c1ccccc1S2(=O)=O -0.974%, O=C(NCCc1ccccc1)C1CCN(Cc2cc3ccccc3n2Cc2cccc(Cl)c2)CC1 -26.6%
